# Assay results: the supplement of paper PMC8728848
# The list shows a part of the results.
# B1: Sebin2 (Coprinopsis cinerea), A8PE78 (protein)
# chain: MTTPFYAYCHNVQDDNTWRLGLVFANRSTADEWWRAISEATSSIPITKSITRVTPQYYTHDIRVWNMYNFFVDGNIKSISDKFRGRLFITLEYDRSGRGVSVFPPLHIVDHVSGNWYYIRSKTAPHLFWFYDETRNAIYASKEKRTRFKVSIRNPSPQTPKDAIMINSDDVVIHIKESLYVGVDSYLGHIIPTRAYRTFKFGELEGGAIAGIEVAENAEERCSSTFDGASLYFVGPDSSSPGEPWELV
# Experiments:
# Assay in all cases: glycan array binding signal (z-score within array); higher = stronger binding
# Conditions in all cases: glycan notation: IUPAC condensed, linker removed
# [1] = target: Fuc(a1-2)[GalNAc(a1-3)]Gal(b1-3)GlcNAc(b1-3)GalNAc
# Summary of the method: (§1)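 The binding signal is a Z-score computed within each array and averaged over linkers. Arrays of the same protein sequence at different concentrations or buffers were also averaged together. Data originate from 3228 arrays in the Consortium for Functional Glycomics database, kept only where the protein sequence was available.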
# [2] = target: Fuc(a1-2)[GalNAc(a1-3)]Gal(b1-3)GlcNAc(b1-6)GalNAc
# Summary of the method: as §1
# [3] = target: Fuc(a1-2)[GalNAc(a1-3)]Gal(b1-4)Glc
# Summary of the method: as §1
# [4] = target: Fuc(a1-2)[GalNAc(a1-3)]Gal(b1-4)GlcNAc
# Summary of the method: as §1
# [5] = target: Fuc(a1-2)[GalNAc(a1-3)]Gal(b1-4)GlcNAc(b1-2)Man
# Summary of the method: as §1
# [6] = target: Fuc(a1-2)[GalNAc(a1-3)]Gal(b1-4)GlcNAc(b1-2)Man(a1-3)[Fuc(a1-2)[GalNAc(a1-3)]Gal(b1-4)GlcNAc(b1-2)Man(a1-6)]Man(b1-4)GlcNAc(b1-4)GlcNAc
# Summary of the method: as §1
# [7] = target: Fuc(a1-2)[GalNAc(a1-3)]Gal(b1-4)GlcNAc(b1-2)Man(a1-3)[Fuc(a1-2)[GalNAc(a1-3)]Gal(b1-4)GlcNAc(b1-2)Man(a1-6)]Man(b1-4)GlcNAc(b1-4)[Fuc(a1-6)]GlcNAc
# Summary of the method: as §1
# [8] = target: Fuc(a1-2)[GalNAc(a1-3)]Gal(b1-4)GlcNAc(b1-3)Gal(b1-4)GlcNAc
# Summary of the method: as §1
# [9] = target: Fuc(a1-2)[GalNAc(a1-3)]Gal(b1-4)GlcNAc(b1-3)Gal(b1-4)GlcNAc(b1-3)Gal(b1-4)GlcNAc
# Summary of the method: as §1
# [10] = target: Fuc(a1-2)[GalNAc(a1-3)]Gal(b1-4)GlcNAc(b1-3)GalNAc
# Summary of the method: as §1
# [11] = target: Fuc(a1-2)[GalNAc(a1-3)]Gal(b1-4)GlcNAc(b1-3)[Fuc(a1-2)[GalNAc(a1-3)]Gal(b1-4)GlcNAc(b1-6)]GalNAc
# Summary of the method: as §1
# [12] = target: Fuc(a1-2)[GalNAc(a1-3)]Gal(b1-4)GlcNAc(b1-6)GalNAc
# Summary of the method: as §1
# [13] = target: Fuc(a1-2)[GalNAc(a1-3)]Gal(b1-4)[Fuc(a1-3)]GlcNAc
# Summary of the method: as §1
# [14] = target: Fuc(a1-2)[GalNAc(a1-3)]Gal(b1-4)[Fuc(a1-3)]GlcNAc(b1-3)GalNAc
# Summary of the method: as §1
# [15] = target: Fuc(a1-2)[GalNAc(a1-4)]Gal(b1-4)GlcNAc
# Summary of the method: as §1
# [16] = target: Fuc(a1-2)[GalNAc(b1-3)]Gal
# Summary of the method: as §1
# Fuc(a1-3)GlcNAc = target: Fuc(a1-3)GlcNAc
# Summary of the method: as §1
# [17] = target: Fuc(a1-3)[Gal(b1-4)]Glc6S
# Summary of the method: as §1
# [18] = target: Fuc(a1-3)[Gal(b1-4)]GlcNAc
# Summary of the method: as §1
# [19] = target: Fuc(a1-3)[Gal(b1-4)]GlcNAc(b1-2)Man
# Summary of the method: as §1
# [20] = target: Fuc(a1-3)[Gal(b1-4)]GlcNAc(b1-2)Man(a1-3)[Fuc(a1-3)[Gal(b1-4)]GlcNAc(b1-2)Man(a1-6)]Man(b1-4)GlcNAc(b1-4)GlcNAc
# Summary of the method: as §1
# [21] = target: Fuc(a1-3)[Gal(b1-4)]GlcNAc(b1-2)Man(a1-3)[Fuc(a1-3)[Gal(b1-4)]GlcNAc(b1-2)Man(a1-6)]Man(b1-4)GlcNAc(b1-4)[Fuc(a1-6)]GlcNAc
# Summary of the method: as §1
# [22] = target: Fuc(a1-3)[Gal(b1-4)]GlcNAc(b1-3)Gal(b1-3)[Fuc(a1-4)]GlcNAc
# Summary of the method: as §1
# [23] = target: Fuc(a1-3)[Gal(b1-4)]GlcNAc(b1-3)Gal(b1-4)[Fuc(a1-3)]GlcNAc
# Summary of the method: as §1
# [24] = target: Fuc(a1-3)[Gal(b1-4)]GlcNAc(b1-3)Gal(b1-4)[Fuc(a1-3)]GlcNAc(b1-3)Gal(b1-4)[Fuc(a1-3)]GlcNAc
# Summary of the method: as §1
# [25] = target: Fuc(a1-3)[Gal(b1-4)]GlcNAc(b1-3)GalNAc
# Summary of the method: as §1
# [26] = target: Fuc(a1-3)[Gal(b1-4)]GlcNAc(b1-6)GalNAc
# Summary of the method: as §1
# [27] = target: Fuc(a1-3)[Gal(b1-4)]GlcNAc(b1-6)[Gal(b1-3)GlcNAc(b1-3)]Gal(b1-4)Glc
# Summary of the method: as §1
# [28] = target: Fuc(a1-3)[Gal(b1-4)]GlcNAc6S
# Summary of the method: as §1
# [29] = target: Fuc(a1-3)[Gal3S(b1-4)]Glc
# Summary of the method: as §1
# [30] = target: Fuc(a1-3)[Gal3S(b1-4)]GlcNAc
# Summary of the method: as §1
# [31] = target: Fuc(a1-3)[Gal3S(b1-4)]GlcNAc6S
# Summary of the method: as §1
# [32] = target: Fuc(a1-3)[GalNAc(b1-4)]GlcNAc
# Summary of the method: as §1
# [33] = target: Fuc(a1-3)[GalNAc(b1-4)]GlcNAc6S
# Summary of the method: as §1
# Fuc(a1-4)GlcNAc = target: Fuc(a1-4)GlcNAc
# Summary of the method: as §1
# Fuc(b1-3)GlcNAc = target: Fuc(b1-3)GlcNAc
# Summary of the method: as §1
# Gal(a1-2)Gal = target: Gal(a1-2)Gal
# Summary of the method: as §1
# Gal(a1-3)Gal = target: Gal(a1-3)Gal
# Summary of the method: as §1
# Gal(a1-3)Gal(b1-3)GlcNAc = target: Gal(a1-3)Gal(b1-3)GlcNAc
# Summary of the method: as §1
# [34] = target: Gal(a1-3)Gal(b1-3)GlcNAc(b1-2)Man
# Summary of the method: as §1
# [35] = target: Gal(a1-3)Gal(b1-3)GlcNAc(b1-2)Man(a1-3)[Gal(a1-3)Gal(b1-3)GlcNAc(b1-2)Man(a1-6)]Man(b1-4)GlcNAc(b1-4)GlcNAc
# Summary of the method: as §1
# [36] = target: Gal(a1-3)Gal(b1-3)GlcNAc(b1-3)GalNAc
# Summary of the method: as §1
# [37] = target: Gal(a1-3)Gal(b1-3)GlcNAc(b1-6)GalNAc
# Summary of the method: as §1
# [38] = target: Gal(a1-3)Gal(b1-3)[Fuc(a1-4)]GlcNAc(b1-2)Man(a1-3)[Gal(a1-3)Gal(b1-3)[Fuc(a1-4)]GlcNAc(b1-2)Man(a1-6)]Man(b1-4)GlcNAc(b1-4)GlcNAc
# Summary of the method: as §1
# Gal(a1-3)Gal(b1-4)Glc = target: Gal(a1-3)Gal(b1-4)Glc
# Summary of the method: as §1
binder,measurement,setting,value
B1,glycan array binding signal (z-score),[1],-0.22
same,glycan array binding signal (z-score),[2],-0.539
same,glycan array binding signal (z-score),[3],-0.045
same,glycan array binding signal (z-score),[4],-0.363
same,glycan array binding signal (z-score),[5],0.076
same,glycan array binding signal (z-score),[6],0.273
same,glycan array binding signal (z-score),[7],-0.041
same,glycan array binding signal (z-score),[8],-0.255
same,glycan array binding signal (z-score),[9],0.11
same,glycan array binding signal (z-score),[10],-0.265
same,glycan array binding signal (z-score),[11],0.229
same,glycan array binding signal (z-score),[12],-0.33
same,glycan array binding signal (z-score),[13],-0.453
same,glycan array binding signal (z-score),[14],0.594
same,glycan array binding signal (z-score),[15],0.018
same,glycan array binding signal (z-score),[16],-0.048
same,glycan array binding signal (z-score),Fuc(a1-3)GlcNAc,-0.336
same,glycan array binding signal (z-score),[17],1.49
same,glycan array binding signal (z-score),[18],-0.316
same,glycan array binding signal (z-score),[19],-0.314
same,glycan array binding signal (z-score),[20],-0.363
same,glycan array binding signal (z-score),[21],0.306
same,glycan array binding signal (z-score),[22],-0.279
same,glycan array binding signal (z-score),[23],-0.062
same,glycan array binding signal (z-score),[24],0.118
same,glycan array binding signal (z-score),[25],0.281
same,glycan array binding signal (z-score),[26],-0.289
same,glycan array binding signal (z-score),[27],-0.501
same,glycan array binding signal (z-score),[28],-0.151
same,glycan array binding signal (z-score),[29],-0.212
same,glycan array binding signal (z-score),[30],-0.212
same,glycan array binding signal (z-score),[31],-0.319
same,glycan array binding signal (z-score),[32],-0.118
same,glycan array binding signal (z-score),[33],0.789
same,glycan array binding signal (z-score),Fuc(a1-4)GlcNAc,4.58
same,glycan array binding signal (z-score),Fuc(b1-3)GlcNAc,-0.189
same,glycan array binding signal (z-score),Gal(a1-2)Gal,-0.294
same,glycan array binding signal (z-score),Gal(a1-3)Gal,0.463
same,glycan array binding signal (z-score),Gal(a1-3)Gal(b1-3)GlcNAc,1.62
same,glycan array binding signal (z-score),[34],0.448
same,glycan array binding signal (z-score),[35],0.377
same,glycan array binding signal (z-score),[36],0.114
same,glycan array binding signal (z-score),[37],-0.001
same,glycan array binding signal (z-score),[38],0.027
same,glycan array binding signal (z-score),Gal(a1-3)Gal(b1-4)Glc,0.021
